# Assay results taken from publication PMC4336329 (PLoS ONE, 2015).
# Hit rate of the full screen: of about 310,000 compounds, about 2,200 (0.71%) showed an effect of 50% or more. The effect is printed as a negative number. The list shows a part of the results.
# Target: human ether-à-go-go-related gene (hERG) potassium channel (human, UniProt Q12809)
# Test: primary screen, population patch clamp on CHO cells stably expressing hERG
# Sequence of human ether-à-go-go-related gene (hERG) potassium channel (Q12809 whole entry, looked up): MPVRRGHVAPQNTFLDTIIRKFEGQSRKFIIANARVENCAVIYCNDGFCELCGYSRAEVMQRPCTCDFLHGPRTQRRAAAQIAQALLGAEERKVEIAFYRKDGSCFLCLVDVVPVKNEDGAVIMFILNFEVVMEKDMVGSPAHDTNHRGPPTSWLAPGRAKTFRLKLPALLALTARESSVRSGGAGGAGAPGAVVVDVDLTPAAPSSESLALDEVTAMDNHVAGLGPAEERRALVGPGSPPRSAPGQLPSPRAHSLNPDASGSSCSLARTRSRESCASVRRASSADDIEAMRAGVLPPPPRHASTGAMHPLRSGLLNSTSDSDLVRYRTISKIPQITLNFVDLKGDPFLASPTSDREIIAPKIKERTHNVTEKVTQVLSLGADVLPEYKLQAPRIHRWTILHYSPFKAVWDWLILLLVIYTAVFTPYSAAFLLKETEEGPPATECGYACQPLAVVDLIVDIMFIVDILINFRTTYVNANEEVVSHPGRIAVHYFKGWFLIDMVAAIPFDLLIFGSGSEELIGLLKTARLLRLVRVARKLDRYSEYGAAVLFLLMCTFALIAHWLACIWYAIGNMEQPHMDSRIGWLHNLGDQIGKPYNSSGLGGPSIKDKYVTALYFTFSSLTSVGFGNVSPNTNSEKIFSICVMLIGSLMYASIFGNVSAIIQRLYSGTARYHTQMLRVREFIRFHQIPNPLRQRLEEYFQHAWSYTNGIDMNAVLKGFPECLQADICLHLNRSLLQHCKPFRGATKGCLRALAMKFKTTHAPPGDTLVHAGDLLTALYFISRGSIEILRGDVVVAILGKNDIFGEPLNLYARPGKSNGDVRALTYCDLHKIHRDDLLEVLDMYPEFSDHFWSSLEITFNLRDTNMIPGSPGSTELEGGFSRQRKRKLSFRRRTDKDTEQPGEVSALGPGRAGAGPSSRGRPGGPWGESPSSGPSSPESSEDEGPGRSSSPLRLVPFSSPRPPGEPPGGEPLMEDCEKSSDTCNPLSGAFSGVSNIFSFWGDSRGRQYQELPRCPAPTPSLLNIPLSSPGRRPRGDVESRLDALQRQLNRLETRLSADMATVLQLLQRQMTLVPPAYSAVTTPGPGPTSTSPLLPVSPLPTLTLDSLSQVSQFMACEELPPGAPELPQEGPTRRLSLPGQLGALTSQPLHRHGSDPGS
row,Compound,"hERG current change (%, negative = inhibition) at 1uM [%]"
1,COc1ccc(N2CC(C(=O)N/N=C/c3ccc([N+](=O)[O-])cc3)CC2=O)cc1 (centres unmarked),-17.6
2,CC1CCC2C(=O)N(c3cccc(C(=O)Nc4ccccc4Cl)c3)C(=O)C2C1 (centres unmarked),12.3
3,COCCn1c(SCC(=O)N2CCCCC2)nc2cccnc21,9.95
4,CCN(C(=O)c1cn(CC)c(=O)c2cc(OC)c(OC)cc12)c1ccccc1C,16.9
5,Br.COc1ccc(-c2ccncc2)cc1OC,9.37
6,CCOc1ccc(S(=O)(=O)Nc2cccc(C(=O)NCC(c3ccccc3)N(C)C)c2)cc1 (centres unmarked),18.3
7,Fc1cc(F)c2nc(N3CCOCC3)sc2c1,14.4
8,Cc1cccc(CCN2CCN=C2N(C)C)c1,6.51
9,Cc1ccc(C(=O)N/C(=C\c2cccnc2)C(=O)N2CCCC2)cc1,10.2
10,CC(C)c1ccc(NC(=O)Cc2ccc(NC3=NC4CS(=O)(=O)CC4S3)cc2)cc1 (centres unmarked),16.1
11,COc1cc(NC(=O)c2cccnc2)c(Cl)cc1NC(=O)c1ccc(Cl)cc1,1.5
12,COc1ccc2sc(SCCCS(=O)(=O)O)[n+](CCCS(=O)(=O)[O-])c2c1,15.8
13,O=C(COc1ccc(F)cc1F)Nc1cccnc1,14.1
14,CC(C)(C)c1ccc(OCCn2ccccc2=O)cc1,1.97
15,CC1=C(Cl)C2=NS(=O)(=O)CCN2C=C1Cl,8.42
16,COc1cc(C(=S)N2CCOCC2)ccc1OC(=O)c1ccccc1,9.48
17,CC(C)c1ccc(NC(=O)COc2ccc(C3SCCS3)cc2)cc1,13.1
18,COc1ccc2c(c1)-c1nc(/N=C/c3cccc(OC)c3O)sc1CC2,14.3
19,O=C(Cn1nc(C(=O)O)c2ccccc2c1=O)Nc1ccc2c(c1)OCO2,9.39
20,COC(=O)c1cc(-c2ccc(F)cc2)n(-c2ccccc2)n1,13.4
21,COc1cccc(C(=O)Nc2c(C(N)=O)oc3ccccc23)c1,7.42
22,Cn1c(=S)[nH]c2ccccc21,9.19
23,COC(=O)c1sc2ncn(CC(=O)N(C)C3CCCCC3)c(=O)c2c1C,12.9

row,Compound,"hERG current change (%, negative = inhibition) at 1uM [%]"
1,O=C(O)c1ccc2c(c1)C(=O)N(c1cc(C(=O)O)ccc1Br)C2=O,-8.05
2,COc1ccccc1C(CC(=O)c1ccccc1)CC(=O)c1ccccc1,14.2
3,C=CCn1c(SCC(=O)NC2CCCCC2)nnc1C(C)NC(=O)c1cccs1 (centres unmarked),-1.08
4,COc1ccc2c(-c3ccccc3)cc(N3CCOCC3)nc2c1.O=C(O)C(=O)O,14.1
5,COc1ccc(S(=O)(=O)N2CCOCC2)cc1NC(=O)c1ccc(-n2nc(C)cc2C)cc1,6.25
6,Cc1ccc(N(CC(=O)NC(C)c2ccccc2)S(=O)(=O)c2c(C)noc2C)cc1 (centres unmarked),16
7,O=C(CSc1ccc(Br)cc1)N1CCOCC1,14.8
8,COC1Cc2ccccc2N(C(N)=O)c2ccccc21 (centres unmarked),10.6
9,Clc1ccc2c(c1)C=Nc1c(NCc3ccccc3)ncnc1O2,9.68
10,CS(=O)(=O)N(Cc1cc2ccccc2[nH]c1=O)C1CCCCC1,7.26
11,Cc1c(NC(=O)COC(=O)Cc2ccc(Br)cc2)c(=O)n(-c2ccccc2)n1C,8.62
12,CCOc1ncccc1C(=O)OCC(=O)Nc1cc(S(=O)(=O)N2CCOCC2)ccc1C,7.29
13,O=C(Nc1nnc(S(=O)(=O)N2CCCC2)s1)c1ccccc1Br,8.81
14,Cc1ncc([N+](=O)[O-])n1CC(=O)Nc1ccccc1F,4.96
15,CCOC(=O)N1CCN(C(=O)C2CCN(S(=O)(=O)c3c(C)cc(C)cc3C)CC2)CC1,0.358
16,COC(=O)c1sc(NC(=S)NC(=O)c2cc(OC)c(OC)c(OC)c2)nc1C,10.9
17,COc1ccc(C2C3=C(CC(C)(C)CC3=O)Nc3c2c(=O)[nH]c2nc(C)nn32)cc1 (centres unmarked),4.21
18,O=C(COc1cc(O)c2c(=O)cc(-c3ccccc3)oc2c1)c1cccc([N+](=O)[O-])c1,8.7
19,CC(C)(CNC(=O)C1CCCN1C(=O)c1cccs1)N1CCOCC1 (centres unmarked),13.1
20,COc1cccc(C(=O)N2CCN=C2SCc2cccnc2)c1OC,8.1
21,CC(CC(=O)Nc1nnc(CC(C)(C)C)s1)c1ccccc1 (centres unmarked),23.5
22,O=S(=O)(c1ccc2c(c1)OCCO2)N1CCC(n2cnc3cc(F)ccc32)CC1,-7.8
23,CNC(=O)c1ccc(OC2CSC2)cc1,16.8

row,Compound,"hERG current change (%, negative = inhibition) at 1uM [%]"
1,CC(OC(=O)Cn1cnc2c1c(=O)n(C)c(=O)n2C)C(=O)c1ccccc1 (centres unmarked),6.77
2,CCC(C)C(NC(=O)C1CCC(C)CC1)C(=O)NC(CCSC)C(=O)OC (centres unmarked),0.532
3,CC1CN(C(=S)NC(=O)c2ccc(Cl)cc2)CC(C)O1 (centres unmarked),14.5
4,CC1Cc2cc(S(=O)(=O)N3CCN(C)CC3)ccc2N1C(=O)C1CC1 (centres unmarked),14.9
5,C/C(=N/NC(=O)C1CCCCC1)c1ccc([N+](=O)[O-])cc1,14.8
6,COc1ccc(CC(=O)NCC2(c3ccc(OC)c(OC)c3)CCOCC2)cc1,15.5
7,Cc1ccc(C(C)C)c(OCc2ccc(C(=O)N/N=C/c3ccc(O)cc3O)cc2)c1,7.03
8,COc1cccc(NC(=O)CN(C)C(=O)CC(NC(=O)c2ccccc2Cl)c2ccccc2)c1 (centres unmarked),-3.1
9,Brc1cnc(N2CCOCC2)nc1N1CCCCC1,1.12
10,COc1ccc2c(c1)-c1c(ssc1=S)C(C)(C)N2C(=O)CSC1=NCCS1,10.6
11,COC(=O)c1c(-c2ccccc2)noc1-c1ccccc1,9.13
12,COc1ccc(-c2[nH]ncc2CN2CCCOc3c(cccc3OC)C2)c(OC)c1,-14.3
13,OCC[C@H]1C[C@@H](O)[C@H](O)[C@]2(OCc3ccccc32)O1,-0.74
14,O=C(NC1CCCC1)C1CCCN(S(=O)(=O)c2cnc[nH]2)C1 (centres unmarked),17.8
15,CCn1c(CCNC(=O)c2ccc(F)cc2)nc2ccccc21,-7.21
16,CCN(CC(=O)NCc1ccc(Cl)cc1)C(=O)CCC(=O)c1ccc(F)cc1,-52.2
17,CCC(C)n1c(SCC(=O)Nc2ccc3[nH]c(=O)[nH]c3c2)nc2ccccc2c1=O (centres unmarked),15.7
18,CCN(CC)Cc1c(CC(C)C)oc(C)c1C(=O)O.Cl,6.58
19,CCn1c(CN2CCN(C(c3ccccc3)c3ccccc3)CC2)nc2c1c(=O)n(C)c(=O)n2C,-17.7
20,CC(C)=NNC(=O)C1=NNC(=O)C1,16.1
21,Cc1ccc(CCNC(=O)CNC(=O)c2cccs2)cc1,11.5
22,CC(C)NC(=O)Cn1c(SCC(=O)NC2CCCC2)nc2ccccc21,4.46
23,Cc1cccc(-n2cnc(C(=O)N/N=C\c3ccc(Br)cc3)c2)n1,1.49

row,Compound,"hERG current change (%, negative = inhibition) at 1uM [%]"
1,CCC(=O)N1CCc2cc(S(=O)(=O)Nc3ccc4c(c3)OCCO4)ccc21,9.68
2,CCOCCCNC(=O)CCn1nc(-c2ccc(Cl)cc2)ccc1=O,-1.75
3,Cc1cc(NC(=O)CSCc2ccc([N+](=O)[O-])cc2)no1,-0.908
4,O=C(C1CCN(Cc2nc(Cc3cccc(F)c3)no2)CC1)N1CCOCC1,6.83
5,COCc1nnc(NC(=O)CCCOc2ccccc2)s1,-6.25
6,CC(C)C(=O)Nc1ccc(NC(=O)c2cc3ccccc3o2)cc1,2.11
7,CCCC1CC(CSc2ncn[nH]2)OC1=O (centres unmarked),1.24
8,CCN(c1ccccc1)S(=O)(=O)c1ccc(C(=O)N(CCCN(C)C)c2nc3cc4c(cc3s2)OCO4)cc1.Cl,15.3
9,C=CCn1c(SCC(=O)Nc2c(C)n(C)n(-c3ccccc3)c2=O)nc2sc(C)c(-c3ccccc3)c2c1=O,3.6
10,CCCCn1c(N)c(N(CCOC)C(=O)c2cc(-c3ccccc3Cl)nc3ccccc23)c(=O)[nH]c1=O,-12.9
11,COc1cc(S(=O)(=O)N2CCCCCC2)ccc1-n1cnnn1,7.03
12,Cn1cc(C(=O)NS(=O)(=O)Nc2ccc(Br)cc2)c2ccccc21,14.8
13,C=C(C)Cn1c(COc2ccccc2)nnc1SCC(=O)O,10.9
14,O=S(=O)(c1ccccc1)N1N=C(c2cccs2)CC1c1ccc(Br)cc1 (centres unmarked),14.7
15,O=C1NC(Cc2c[nH]c3ccccc23)C(=O)N1CCOc1ccccc1 (centres unmarked),-2.02
16,Cc1ccc(C(=O)c2ccccc2C(=O)OCC(=O)N2CC(C)CC(C)C2)cc1 (centres unmarked),2.11
17,COc1cccc(-c2ccc(SCc3ccccn3)nn2)c1,6.98
18,CCOC(=O)C(NC(=O)N1CCCCC1)(c1ccccc1)C(F)(F)F (centres unmarked),12.2
19,COc1ccc(CN(C(=O)c2ccc(CN3CCOCC3)o2)C(C(=O)NCC2CCCO2)c2ccc(F)cc2)cc1 (centres unmarked),4.47
20,Cc1ccc2nc(N(CCCN(C)C)C(=O)c3ccc(S(=O)(=O)N4CCOCC4)cc3)sc2c1.Cl,-13
